Results on four molecules are retold here after PubChem BioAssay (NCI).

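Cells were grown in 96-well plates and exposed to each compound for 48 hours at five concentrations; endpoints were interpolated linearly between bracketing concentrations, or set to the highest concentration if not reached. Abbreviation: GI50, concentration required for 50% inhibition of growth.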 The source holds more than one record for some entries. The other results are left out here. The source may hold further records. For part of these data: Records of one sample usually come from different ranges of test concentrations, which the source does not state; some values may only mark the edge of a range. For part of these data: Values that stand side by side are repeated measurements (runs, samples, wells, individuals or studies). A tag in brackets gives the origin of a value. Letters hold for one entry only.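 TGI: concentration producing complete growth inhibition.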 A value given as a limit tells only on which side of the number the result lay.

Some test systems named below: CAKI-1 renal; HOP-92 NSCLC; T-47D breast; HS 578T breast; SK-OV-3 ovarian; COLO 205 colon; EKVX NSCLC; LOX IMVI melanoma; SNB-19 CNS; UACC-257 melanoma; HOP-62 NSCLC; UACC-62 melanoma; A549 NSCLC; RPMI-8226 leukemia; HL-60(TB) leukemia; NCI-H460 lung; NCI-H226 lung; A498 renal; HCC-2998 colon; KM12 colon; UO-31 renal; CCRF-CEM leukemia; HCT-116 colon; SK-MEL-5 melanoma; M14 melanoma; SW-620 colon; NCI-H23 lung; SF-268 CNS; OVCAR-3 ovarian; SN12C renal; 786-0 renal; MOLT-4 leukemia; MALME-3M melanoma; ACHN renal; OVCAR-4 ovarian; NCI-H522 lung.

Holding throughout (assay): DTP human tumour cell line panel, 48 h

For `COC1C(O)C(C)OC(OC2C(Oc3cccc4c(O)c5c(=O)oc6ccc(C)c7c(=O)oc(c34)c5c67)OC(C)C(O)C2O)C1O` (centres undefined), in the assay with CAKI-1 renal, the 50% growth inhibitory concentration (GI50) is 4.83 µM [mean of 3 tests] and 213 nM [mean of 4 tests]; the TGI was > 57.7 µM [mean of 3 tests] and 1.08 µM [mean of 4 tests]. For the same molecule, in the assay on HOP-92 NSCLC, the TGI is > 36.5 µM and 492 nM.

On to `COc1cc(Nc2ncc(F)c(Nc3ccc4c(n3)NC(=O)C(C)(C)O4)n2)cc(OC)c1OC`, for which the GI50 with T-47D breast was > 100 µM [sample A, 1 test] and 3.53 µM [sample B, 1 test]; with SK-OV-3 ovarian it was > 100 µM [sample A, 1 test] and 1.19 µM [sample B, 1 test]. Besides, the total growth inhibition concentration (TGI) in the assay with HS 578T breast was 820 nM [sample A, 1 test] and > 10 µM [sample B, 1 test].

Take `COc1ccc(C[C@@H]2NC[C@@H](O)[C@@H]2OC(C)=O)cc1`: the total growth inhibition concentration (TGI) is 23.2 nM and > 100 µM in the assay with COLO 205 colon; 411 nM and > 100 µM with EKVX NSCLC; 24.7 nM and > 100 µM with LOX IMVI melanoma; 128 nM and > 100 µM in the assay on SNB-19 CNS; 233 nM and 68.2 µM in the assay with UACC-257 melanoma; 135 nM and > 100 µM in the assay with HOP-62 NSCLC. In addition, the TGI is 159 nM and 33.8 µM in the assay on UACC-62 melanoma; 90.9 nM and > 100 µM in the assay with CAKI-1 renal; 974 nM and > 100 µM in the assay with A549 NSCLC; 97.3 nM and > 100 µM in the assay with RPMI-8226 leukemia; 18.2 nM and > 100 µM in the assay on HL-60(TB) leukemia; 315 nM and > 100 µM in the assay with NCI-H460 lung. Moreover, the TGI was 280 nM and 30.9 µM in the assay on NCI-H226 lung; 52.2 nM and 27.4 µM in the assay with A498 renal; 134 nM and 12.7 µM in the assay with HCC-2998 colon; 130 nM and > 100 µM in the assay with KM12 colon; 156 nM and > 100 µM in the assay with UO-31 renal; 70.7 nM and > 100 µM with CCRF-CEM leukemia. In addition, the TGI was 91.7 nM and > 100 µM in the assay with HCT-116 colon; 71.1 nM and 2.23 µM in the assay with SK-MEL-5 melanoma; 131 nM and > 100 µM in the assay with M14 melanoma; 247 nM and > 100 µM with SW-620 colon; 114 nM and 27.3 µM with NCI-H23 lung; 96.7 nM and > 100 µM with SF-268 CNS. Moreover, the TGI was 237 nM and > 100 µM with OVCAR-3 ovarian; 526 nM and 43.1 µM in the assay with SN12C renal; 237 nM and > 100 µM in the assay on 786-0 renal; 65.9 nM and 49.7 µM in the assay with MOLT-4 leukemia; 293 nM and > 100 µM with MALME-3M melanoma; 78.3 nM and > 100 µM in the assay with ACHN renal. In addition, the total growth inhibition concentration (TGI) in the assay with OVCAR-4 ovarian is 62.4 nM and > 100 µM; with NCI-H522 lung, 116 nM and > 100 µM.

As for `CN(C)CC1COC2Cc3ccccc3C1O2` (centres undefined), the GI50 in the assay with UACC-62 melanoma is > 100 µM [sample A, 1 test] and 7.78 µM [sample B, 1 test].

Usually GI50 stands for the concentration that inhibits growth by half. The term TGI denotes the concentration giving total growth inhibition. The low end stands for more potent growth arrest, the high end for less potent growth arrest.
